Test results published in the supplement of paper PMC7125110.
± gives the standard error. Variants at the background level are over-represented here.

B1: glmS ribozyme (parent)
chain: AUAAAAGCGCCAGAACUACAGAAAUGUAGUUGACGAGGAGGAGGUUUAUCGAAUUUUCGGCGGAUGCCUCCAAA

Key:
Settings in all cases: with glucosamine-6-phosphate
glucosamine-6-phosphate [1] = variants of: B1; assay: self-cleavage kobs at 40 uM GlcN6P; higher = faster cleavage; RNA array
Summary of the method: (§1)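 Barcoded ribozyme variants, transcribed in situ by E. coli RNA polymerase on sequenced MiSeq chips, were followed via a hybridised Cy3 probe at 37 °C. Glucosamine-6-phosphate ranged from 40 μM to 10 mM in HEPES/KCl/Mg(OAc)2 buffer. kobs came from decay fits to per-tile medians, and kcat and KM from weighted Michaelis–Menten fits.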

glucosamine-6-phosphate [2] = variants of: B1; assay: self-cleavage kobs at 10000 uM GlcN6P; higher = faster cleavage; RNA array
Summary of the method: as §1

glucosamine-6-phosphate [3] = variants of: B1; assay: self-cleavage kobs at 640 uM GlcN6P; higher = faster cleavage; RNA array
Summary of the method: as §1

glucosamine-6-phosphate [4] = variants of: B1; assay: self-cleavage kobs at 160 uM GlcN6P; higher = faster cleavage; RNA array
Summary of the method: as §1

glucosamine-6-phosphate [5] = variants of: B1; assay: self-cleavage kobs at 2500 uM GlcN6P; higher = faster cleavage; RNA array
Summary of the method: as §1

Variant	self-cleavage kobs at 40 uM GlcN6P (glucosamine-6-phosphate [1])	self-cleavage kobs at 10000 uM GlcN6P (glucosamine-6-phosphate [2])	self-cleavage kobs at 640 uM GlcN6P (glucosamine-6-phosphate [3])	self-cleavage kobs at 160 uM GlcN6P (glucosamine-6-phosphate [4])	self-cleavage kobs at 2500 uM GlcN6P (glucosamine-6-phosphate [5])
AUAAAAGCGCCAGAACUACAGAAAUGUAGUAGGCGAGGAGGAGGUUUAUCGAAUUAUCGGCGGAUGCCUCCAAA [U31A A33G U56A]	< 1e-05 s⁻¹	< 1e-05 s⁻¹	–	–	–
AUAAAAGCGCCAGAACUACAGAAAUGUAGGUGACGAGGAGGAGGUUUAUCGAAUUUUCCGCGGAUGCCUCCAAA [U30G G59C]	< 1e-05 s⁻¹	< 1e-05 s⁻¹	< 1e-05 s⁻¹	–	–
AUAAAAGCGCCAGAACUACAGAAAUGUAGCUGACGAGGAGGAGAUUUAUCGAAUUUUCGGCGGUUGCCUCCAAA [U30C G44A A64U]	< 1e-05 s⁻¹	< 1e-05 s⁻¹	< 1e-05 s⁻¹	< 1e-05 s⁻¹	< 1e-05 s⁻¹
AUAAAAGCGCCAGAACUACAGAAAUGUAGCUGACGAGGAGGAGGUUUAUCGAAUUUUCGGCGGAUCUCUCCAAA [U30C G66C C67U]	< 1e-05 s⁻¹	–	–	–	–
AUAAAAGCGCCAGAACUACAGAAAUGUAGCUGACGAGGAAGAGGUUUAUCGAAUUUUCGGCGGAUGCCUCCAAA [U30C G40A]	< 1e-05 s⁻¹	–	–	–	–
AUAAAAGCGCCAGAACUACAGAAAUGUAGUAGACGAGGAGGCGGUUUAUCGAAUUUUCGGCGGAUGCCUCCAAA [U31A A42C]	< 1e-05 s⁻¹	–	< 1e-05 s⁻¹	< 1e-05 s⁻¹	< 1e-05 s⁻¹
AUAAAAGCGCCAGAACUACAGAAAUGUAGGUGACGAGGAGGAGGUUUAUCGAAUUAUCGGCGGAUACCUCCAAA [U30G U56A G66A]	5.14e-05 ± 1.7e-05 s⁻¹	0.00252 ± 0.00061 s⁻¹	–	–	–
AUAAAAGCGCCAGAACUACAGAAAUGUAGGUGACGAGGAGGAGGUUUAUCGAAUUUUCGGCGGAUGACUCCAAA [U30G C67A]	6.13e-05 ± 1.3e-05 s⁻¹	–	–	–	–
AUAAAAGCGCCAGAACUACAGAAAUGUAGCUGACGAGGAGGAGGAUCAUUGAAUUUUCGUCGGAUGCUUCCAAA [U30C U45A U47C C50U G60U C68U]	< 1e-05 s⁻¹	–	–	–	–
AUAAAAGCGCCAGAACUACAGAAAUGUAGGGGACGAGGAGGAGGUUUAGCGAAUUUUCGGCGGAUGCCGCCAAA [U30G U31G U49G U69G]	< 1e-05 s⁻¹	–	7.71e-05 ± 2.2e-05 s⁻¹	–	6.45e-05 ± 2.7e-05 s⁻¹
AUAAAAGCGCCAGAACUACAGAAAUGUAGGUGACGAGGAGGAGGUUUAUCGAAGCUUCGGCGGCUGCCUCCAAA [U30G U54G U55C A64C]	< 1e-05 s⁻¹	–	< 1e-05 s⁻¹	–	–
AUAAAAGCGCCAGAACUACAGAAAUGUAGGUGACGAUGAGGAGGCUUAUCGAAUUUUCGGCGGAUGCCUCUAAA [U30G G37U U45C C71U]	< 1e-05 s⁻¹	< 1e-05 s⁻¹	–	–	–
AUAAAAGCGCCAGAACUACAGAAAUGUAGUAGACGGGGAGGAGGUUUAUCGAAUUUUCGGCGGAUGGCUCCAAA [U31A A36G C67G]	< 1e-05 s⁻¹	< 1e-05 s⁻¹	–	–	–
AUAAAAGCGCCAGAACUACAGAAAUGUAGGUGACGAGGAGGAGGUUUAUCGAAUUUUCGACGGAUGUCUCCAAA [U30G G60A C67U]	< 1e-05 s⁻¹	–	–	–	–
AUAAAAGCGCCAGAACUACAGAAAUGUAGCUGACGAGGAGGAGGUUUAUCGAAUUUUCGACGGAUGCCUCCAAA [U30C G60A]	< 1e-05 s⁻¹	< 1e-05 s⁻¹	–	< 1e-05 s⁻¹	–
AUAAAAGCGCCAGAACUACAGAAAUGUAGCUGACGAGGAGGAGGUUUAUCGAAUUUUCGGCGGAUAGCUCCAAA [U30C G66A C67G]	< 1e-05 s⁻¹	–	–	–	–
AUAAAAGCGCCAGAACUACAGAAAUGUAGCUGACGAAGAGGAGGUUUAUCGAAUUUUCGGCGGAUGCCUCCAAA [U30C G37A]	< 1e-05 s⁻¹	–	–	–	–
AUAAAAGCGCCAGAACUACAGAAAUGUAGCUGACGAGGAGGAGGUUUAUCGAAUUUUCGGCGGAUGGCUCCAAA [U30C C67G]	< 1e-05 s⁻¹	–	–	–	–
AUAAAAGCGCCAGAACUACAGAAAUGUAGCUGACGAGGAGCAGGUUUAUCGAAUUUUCGGCGGAUGCCUCCAAA [U30C G41C]	< 1e-05 s⁻¹	–	< 1e-05 s⁻¹	< 1e-05 s⁻¹	–
